Test results published in publication PMC3854969.
Results are given in words; binding and its absence hold for the method and conditions named. For some assays here: In cells and extracts the contact can be indirect. Some entries that bind do so weakly or less than the wild type. Tags and fused reporters may be left off the sequences shown. Values belong to the binder of their own block, whether it stands above or below them.

Chains of the proteins cited; added tags and fusions are not shown.
UniProt Q3SXY8: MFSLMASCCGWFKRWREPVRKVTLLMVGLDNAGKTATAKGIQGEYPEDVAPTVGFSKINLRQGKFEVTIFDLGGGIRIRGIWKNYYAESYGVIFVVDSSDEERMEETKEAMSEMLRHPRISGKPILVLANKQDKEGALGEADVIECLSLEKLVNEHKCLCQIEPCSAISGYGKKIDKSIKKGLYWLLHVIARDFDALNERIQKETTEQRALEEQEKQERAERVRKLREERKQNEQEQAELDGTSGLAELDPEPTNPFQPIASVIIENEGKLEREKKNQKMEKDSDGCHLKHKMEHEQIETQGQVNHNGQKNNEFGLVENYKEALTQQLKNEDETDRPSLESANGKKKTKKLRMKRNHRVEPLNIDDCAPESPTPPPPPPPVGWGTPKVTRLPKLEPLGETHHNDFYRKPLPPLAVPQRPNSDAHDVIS

What was measured:
[1] = target: ARL13B-Flag (human full-length Arl13b with C-terminal Flag tag) (human) (UniProt Q3SXY8); test: co-IP; HEK293T cells transfected with C-terminal Flag vector with or without ARL13B; lysates (50 mM Tris-HCl pH 7.5, 100 mM NaCl, 1% NP-40, 5 mM MgCl2) on anti-Flag M2 beads; Western blot for endogenous IFT88, IFT52, INVS
[2] = target: GAL4-BD fused to full length ARL13B (human) (UniProt Q3SXY8); test: two-hybrid; GAL4-based (Hybrizap), one-on-one; GAL4-BD-ARL13B bait against GAL4-AD preys in yeast PJ69-4A; growth on media lacking His and Ade, alpha- and beta-galactosidase

B3: intraflagellar transport 52 (protein, UniProt Q9Y366 1-437)
chain: MEKELRSTILFNAYKKEIFTTNNGYKSMQKKLRSNWKIQSLKDEITSEKLNGVKLWITAGPREKFTAAEFEILKKYLDTGGDVFVMLGEGGESRFDTNINFLLEEYGIMVNNDAVVRNVYHKYFHPKEALVSSGVLNREISRAAGKAVPGIIDEESSGNNAQALTFVYPFGATLSVMKPAVAVLSTGSVCFPLNRPILAFYHSKNQGGKLAVLGSCHMFSDQYLDKEENSKIMDVVFQWLTTGDIHLNQIDAEDPEISDYMMLPYTATLSKRNRECLQESDEIPRDFTTLFDLSIFQLDTTSFHSVIEAHEQLNVKHEPLQLIQPQFETPLPTLQPAVFPPSFRELPPPPLELFDLDETFSSEKARLAQITNKCTEEDLEFYVRKCGDILGVTSKLPKDQQDAKHILEHVFFQVVEFKKLNQEHDIDTSETAFQNNF
binding [1]: binds

B4: IFT46 fused to GAL4 activation domain (protein, UniProt Q9NQC8 1-304)
chain: MADNSSDECEEENNKEKKKTSQLTPQRGFSENEDDDDDDDDSSETDSDSDDDDEEHGAPLEGAYDPADYEHLPVSAEIKELFQYISRYTPQLIDLDHKLKPFIPDFIPAVGDIDAFLKVPRPDGKPDNLGLLVLDEPSTKQSDPTVLSLWLTENSKQHNITQHMKVKSLEDAEKNPKAIDTWIESISELHRSKPPATVHYTRPMPDIDTLMQEWSPEFEELLGKVSLPTAEIDCSLAEYIDMICAILDIPVYKSRIQSLHLLFSLYSEFKNSQHFKALAEGKKAFTPSSNSTSQAGDMETLTFS
binding [2]: binds

Further lines, results first:

binding [1]: no binding
B1: Inversin (protein, UniProt Q9Y283 1-1065)
chain: MNKSENLLFAGSSLASQVHAAAVNGDKGALQRLIVGNSALKDKEDQFGRTPLMYCVLADRLDCADALLKAGADVNKTDHSQRTALHLAAQKGNYRFMKLLLTRRANWMQKDLEEMTPLHLTTRHRSPKCLALLLKFMAPGEVDTQDKNKQTALHWSAYYNNPEHVKLLIKHDSNIGIPDVEGKIPLHWAANHKDPSAVHTVRCILDAAPTESLLNWQDYEGRTPLHFAVADGNVTVVDVLTSYESCNITSYDNLFRTPLHWAALLGHAQIVHLLLERNKSGTIPSDSQGATPLHYAAQSNFAETVKVFLKHPSVKDDSDLEGRTSFMWAAGKGSDDVLRTMLSLKSDIDINMADKYGGTALHAAALSGHVSTVKLLLENNAQVDATDVMKHTPLFRACEMGHKDVIQTLIKGGARVDLVDQDGHSLLHWAALGGNADVCQILIENKINPNVQDYAGRTPLQCAAYGGYINCMAVLMENNADPNIQDKEGRTALHWSCNNGYLDAIKLLLDFAAFPNQMENNEERYTPLDYALLGERHEVIQFMLEHGALSIAAIQDIAAFKIQAVYKGYKVRKAFRDRKNLLMKHEQLRKDAAAKKREEENKRKEAEQQKGRRSPDSCRPQALPCLPSTQDVPSRQSRAPSKQPPAGNVAQGPEPRDSRGSPGGSLGGALQKEQHVSSDLQGTNSRRPNETAREHSKGQSACVHFRPNEGSDGSRHPGVPSVEKSRGETAGDERCAKGKGFVKQPSCIRVAGPDEKGEDSRRAAASLPPHDSHWKPSRRHDTEPKAKCAPQKRRTQELRGGRCSPAGSSRPGSARGEAVHAGQNPPHHRTPRNKVTQAKLTGGLYSHLPQSTEELRSGARRLETSTLSEDFQVSKETDPAPGPLSGQSVNIDLLPVELRLQIIQRERRRKELFRKKNKAAAVIQRAWRSYQLRKHLSHLRHMKQLGAGDVDRWRQESTALLLQVWRKELELKFPQTTAVSKAPKSPSKGTSGTKSTKHSVLKQIYGCSHEGKIHHPTRSVKASSVLRLNSVSNLQCIHLLENSGRSKNFSYNLQSATQPKNKTKP

binding [1]: binds
B2: IFT88 (protein, UniProt Q13099 1-824)
chain: MMQNVHLAPETDEDDLYSGYNDYNPIYDIEELENDAAFQQAVRTSHGRRPPITAKISSTAVTRPIATGYGSKTSLASSIGRPMTGAIQDGVTRPMTAVRAAGFTKAALRGSAFDPLSQSRGPASPLEAKKKDSPEEKIKQLEKEVNELVEESCIANSCGDLKLALEKAKDAGRKERVLVRQREQVTTPENINLDLTYSVLFNLASQYSVNEMYAEALNTYQVIVKNKMFSNAGILKMNMGNIYLKQRNYSKAIKFYRMALDQVPSVNKQMRIKIMQNIGVTFIQAGQYSDAINSYEHIMSMAPNLKAGYNLTICYFAIGDREKMKKAFQKLITVPLEIDEDKYISPSDDPHTNLVTEAIKNDHLRQMERERKAMAEKYIMTSAKLIAPVIETSFAAGYDWCVEVVKASQYVELANDLEINKAVTYLRQKDYNQAVEILKVLEKKDSRVKSAAATNLSALYYMGKDFAQASSYADIAVNSDRYNPAALTNKGNTVFANGDYEKAAEFYKEALRNDSSCTEALYNIGLTYEKLNRLDEALDCFLKLHAILRNSAEVLYQIANIYELMENPSQAIEWLMQVVSVIPTDPQVLSKLGELYDREGDKSQAFQYYYESYRYFPCNIEVIEWLGAYYIDTQFWEKAIQYFERASLIQPTQVKWQLMVASCFRRSGNYQKALDTYKDTHRKFPENVECLRFLVRLCTDLGLKDAQEYARKLKRLEKMKEIREQRIKSGRDGSGGSRGKREGSASGDSGQNYSASSKGERLSARLRALPGTNEPYESSSNKEIDASYVDPLGPQIERPKTAAKKRIDEDDFADEELGDDLLPE

binding [2]: binds
B5: IFT74 fused to GAL4 activation domain (protein, UniProt Q96LB3 1-600)
chain: MASNHKSSAARPVSRGGVGLTGRPPSGIRPLSGNIRVATAMPPGTARPGSRGCPIGTGGVLSSQIKVAHRPVTQQGLTGMKTGTKGPQRQILDKSYYLGLLRSKISELTTEVNKLQKGIEMYNQENSVYLSYEKRAETLAVEIKELQGQLADYNMLVDKLNTNTEMEEVMNDYNMLKAQNDRETQSLDVIFTERQAKEKQIRSVEEEIEQEKQATDDIIKNMSFENQVKYLEMKTTNEKLLQELDTLQQQLDSQNMKKESLEAEIAHSQVKQEAVLLHEKLYELESHRDQMIAEDKSIGSPMEEREKLLKQIKDDNQEIASMERQLTDTKEKINQFIEEIRQLDMDLEEHQGEMNQKYKELKKREEHMDTFIETFEETKNQELKRKAQIEANIVALLEHCSRNINRIEQISSITNQELKMMQDDLNFKSTEVQKSQSTAQNLTSDIQRLQLDLQKMELLESKMTEEQHSLKSKIKQMTTDLEIYNDLPALKSSGEEKIKKLHQERMILSTHRNAFKKIMEKQNIEYEALKTQLQENETHSQLTNLERKWQHLEQNNFAMKEFIATKSQESDYQPIKKNVTKQIAEYNKTIVDALHSTSGN
